Results published in PubChem BioAssay.
This list was built around the results that the source calls inconclusive (neither active nor inactive); the mix of calls is not that of the screen. Active and inactive are the calls of the source.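 Rule for the calls, unless noted: active = thallium flux rate significantly above the same plate's solvent-only control wells, beyond their mean plus 3 SD; inconclusive = the two replicate wells gave conflicting results; inactive = the rest.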

How the values were obtained:
[1] = compound effects on native HEK Tl+ uptake – HEK cells, counterscreen 1, counter-screen for KCC2 modulator project, confirmation (AID 1716); conditions: HEK293 parental cells, thallium flux FluoZin2, ouabain; at 10 µM; baseline-ratio fluorescence slope, 10–20 s after thallium
[2] = target: Solute carrier family 12 member 5 (Homo sapiens) (UniProt Q9H2X9); assay: modulation of KCC2 thallium flux in HEK cells – cell-based, ouabain, retest, confirmation (AID 1717;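 active = thallium flux slope beyond 3 SD from same-plate DMSO control mean in most replicates, usually higher, sometimes lower; inconclusive = repeat tests gave conflicting results; inactive = no significant difference from controls in most replicates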;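 note: slope of initial-normalized fluorescence between seconds 10 and 20 after thallium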); conditions: HEK293-KCC2, thallium flux FluoZin2 fluorescence, at 10 µM, bidirectional: low = inhibitor, high = activator
Chain of UniProt Q9H2X9 (Q9H2X9 whole entry, looked up): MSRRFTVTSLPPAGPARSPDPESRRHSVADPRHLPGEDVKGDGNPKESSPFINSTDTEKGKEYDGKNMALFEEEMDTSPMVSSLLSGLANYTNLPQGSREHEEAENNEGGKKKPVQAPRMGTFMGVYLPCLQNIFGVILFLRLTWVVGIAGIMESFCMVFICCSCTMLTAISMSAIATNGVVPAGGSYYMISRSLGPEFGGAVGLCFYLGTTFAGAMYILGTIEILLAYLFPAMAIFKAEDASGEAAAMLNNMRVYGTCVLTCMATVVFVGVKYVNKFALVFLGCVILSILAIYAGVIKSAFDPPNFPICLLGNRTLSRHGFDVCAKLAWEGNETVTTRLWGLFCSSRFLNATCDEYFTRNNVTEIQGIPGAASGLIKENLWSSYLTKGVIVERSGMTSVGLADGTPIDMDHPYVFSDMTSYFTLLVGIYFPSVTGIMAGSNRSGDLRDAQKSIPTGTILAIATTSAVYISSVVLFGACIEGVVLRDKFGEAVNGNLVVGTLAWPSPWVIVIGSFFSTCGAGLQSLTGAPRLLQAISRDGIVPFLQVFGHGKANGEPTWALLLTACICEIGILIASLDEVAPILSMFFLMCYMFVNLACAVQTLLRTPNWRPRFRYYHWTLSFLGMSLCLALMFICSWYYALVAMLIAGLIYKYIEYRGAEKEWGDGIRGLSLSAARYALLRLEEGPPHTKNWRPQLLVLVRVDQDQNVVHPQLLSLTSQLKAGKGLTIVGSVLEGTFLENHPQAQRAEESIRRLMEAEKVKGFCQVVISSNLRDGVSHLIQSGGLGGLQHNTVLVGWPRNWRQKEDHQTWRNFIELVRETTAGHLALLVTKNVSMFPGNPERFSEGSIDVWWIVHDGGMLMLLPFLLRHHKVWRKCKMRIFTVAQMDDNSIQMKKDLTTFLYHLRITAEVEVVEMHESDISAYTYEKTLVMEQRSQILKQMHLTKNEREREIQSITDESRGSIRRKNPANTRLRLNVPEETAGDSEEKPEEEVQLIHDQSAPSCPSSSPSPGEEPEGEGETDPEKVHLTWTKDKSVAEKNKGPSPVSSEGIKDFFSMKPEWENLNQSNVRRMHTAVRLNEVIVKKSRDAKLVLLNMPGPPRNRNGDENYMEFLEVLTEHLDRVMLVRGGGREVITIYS

Row | SMILES | thallium flux rate (normalised fluorescence) [1] | raw Tl+ flux slope (below DMSO = inhibition, above = activation) [2]
1 | CN(C)c1ccc(/C=C/c2ccc3c4ccccc4ccc3[n+]2-c2ccccc2)cc1 | inconclusive: 0.00708 | active: 0.014
2 | CC1=NN(C(N)=S)C(=O)C1N=Nc1ccccc1 (configuration not stated) | inconclusive: 0.00903 | inconclusive: 0.0277
3 | COCCn1c(C)cc(C(=O)CSc2ncnc3sc4c(c23)CCC4)c1C | inconclusive: 0.006 | inconclusive: 0.0231
4 | Cc1ccc(NC(=O)C(=O)NNC(=O)c2ccccc2C)cc1Cl | inconclusive: 0.0457 | active: 0.0867
5 | Cc1c(O)ccc2c(CN(C)Cc3ccccc3)cc(=O)oc12 | inconclusive: 0.00291 | active: 0.0153
6 | O=S(=O)(Nc1nc2ccccc2nc1Nc1cccc(S(=O)(=O)N2CCCCC2)c1)c1ccccc1 | inconclusive: 0.00534 | inconclusive: 0.0177
7 | O=C(N/N=C\c1ccc(Cl)s1)C1COc2ccccc2O1 (configuration not stated) | inconclusive: 0.0063 | inconclusive: 0.0223
8 | CCOc1ccc(C(Nc2cccnc2)c2cc(Cl)c3cccnc3c2O)cc1 (configuration not stated) | active: 0.0179 | inconclusive: 0.0232
9 | O=C(NNS(=O)(=O)c1ccc2ccccc2c1)C1CCN(Cc2ccccc2)CC1 | inactive: 0.00703 | inconclusive: 0.0151
10 | C/C(=N\NC(=S)NCc1ccccc1)c1ccc(Cl)s1 | inconclusive: 0.0132 | active: 0.0261
11 | C/C(=C\C(=O)c1ccc(Cl)s1)N(C)C | inconclusive: 0.00665 | inconclusive: 0.0241
12 | CC1CCCN(C(=O)CCCn2c(=S)[nH]c3ccccc3c2=O)C1 (configuration not stated) | active: 0.00985 | inconclusive: 0.0196
13 | CC(C)Cc1[nH]c(=O)c(C#N)c2c1CCCC2 | inconclusive: 0.00681 | inactive: 0.0169
14 | CCn1nc(C(=O)OCC(=O)c2ccc(F)cc2)c2ccccc2c1=O | inconclusive: 0.00592 | inconclusive: 0.0151
15 | CCOP(=O)(c1ccccc1)c1nc(-c2ccc(F)cc2)oc1N1CCCCC1 (configuration not stated) | inconclusive: 0.0031 | inconclusive: 0.0179
16 | CCCC(=O)Nc1nc(-c2ccc3c(c2)CCN3S(C)(=O)=O)cs1 | inconclusive: 0.00797 | inactive: 0.0214
17 | CCCCC(c1nnnn1CC1CCCO1)N1CCN(c2nc3ccccc3s2)CC1 (configuration not stated) | inconclusive: 0.00655 | active: 0.0123
18 | O=S1(=O)N=C(N2CCN(Cc3ccccc3)CC2)c2ccccc21 | inactive: 0.008 | inconclusive: 0.0157

Row | SMILES | thallium flux rate (normalised fluorescence) [1] | raw Tl+ flux slope (below DMSO = inhibition, above = activation) [2]
19 | COc1cccc(C2c3c(oc4ccc(F)cc4c3=O)C(=O)N2CCCN2CCOCC2)c1 (configuration not stated) | active: 0.0133 | inconclusive: 0.0209
20 | Cc1ccc(N(CC(=O)NCCSc2ccccn2)S(=O)(=O)c2ccc(F)cc2)cc1 | inactive: 0.00691 | inconclusive: 0.0168
21 | Cc1ccc(S(=O)(=O)c2nc(C)oc2NCc2ccccc2)cc1 | inactive: 0.0076 | inconclusive: 0.0156
22 | O=C(NC(=S)Nc1cccc2cccnc12)c1cccs1 | inconclusive: 0.00747 | inconclusive: 0.0233
23 | COc1ccc(NC(=O)c2ccc(COc3ccccc3)o2)cc1 | inactive: 0.00644 | inconclusive: 0.0156
24 | O=C(CSc1cccc2cccnc12)Nc1ccc(S(=O)(=O)N2CCOCC2)cc1 | active: 0.0156 | inconclusive: 0.0243
25 | COc1ccc(C(=O)NC(=S)NCc2ccco2)cc1 | inconclusive: 0.0091 | inconclusive: 0.0237
26 | O=C(O)c1cccc2c(-c3ccccc3)c(-c3ccccc3)[nH]c12 | inconclusive: 0.0118 | inconclusive: 0.0233
27 | CCc1ccc(NC(=O)CCn2c(=O)oc3ccccc32)cc1 | inactive: 0.00711 | inconclusive: 0.0159
28 | O=C(C1CCCN(S(=O)(=O)c2cccc3nsnc23)C1)N1CCc2ccccc21 (configuration not stated) | inconclusive: 0.00859 | inactive: 0.0238
29 | CCOC(=O)c1sc(-c2cccc(C(F)(F)F)c2)nc1O | active: 0.012 | inconclusive: 0.0215
30 | O=c1nc(Nc2cccc(Cl)c2)oc2cc(Cl)oc(=O)c12 | inactive: 0.00646 | inconclusive: 0.0161
31 | C=CCNC(=O)NC(=O)CSc1nc2cc([N+](=O)[O-])ccc2n1-c1cccc(C(F)(F)F)c1 | active: 0.0107 | inconclusive: 0.023
32 | CN1CCC(OC(c2ccccc2)c2ccccc2)CC1 | inconclusive: 0.00751 | inactive: 0.0218
33 | O=C(COc1ccc(Cl)cc1Cl)NNC(=S)NC(=O)c1ccco1 | inconclusive: 0.0385 | active: 0.076
34 | O=S(=O)(NCc1ccco1)c1ccc2c(c1)Cc1ccccc1-2 | inconclusive: 0.00819 | inconclusive: 0.0155
35 | COc1ccc(CN(C(=O)c2cc3ccccc3oc2=O)C2CCCC2)cc1 | inconclusive: 0.00326 | inconclusive: 0.0168
36 | CCN(CC)c1ccc(C(=O)Nc2cccc(F)c2)cc1 | inconclusive: 0.00634 | inactive: 0.0135
